According to ChEMBL document CHEMBL4038348 (J Med Chem, 2017):

Columns and labels:
physchem = conditions: octanol/water, pH 7.4
[1] = molecular target: Dual specificity calcium/calmodulin-dependent 3',5'-cyclic nucleotide phosphodiesterase 1A (Homo sapiens, UniProt P54750)
[2] = molecular target: cGMP-inhibited 3',5'-cyclic phosphodiesterase 3A (Homo sapiens, UniProt Q14432)
[3] = molecular target: T1, 3',5'-cyclic-AMP phosphodiesterase 4D (Homo sapiens, UniProt Q08499)
[4] = molecular target: T2, cAMP and cAMP-inhibited cGMP 3',5'-cyclic phosphodiesterase 10A (Homo sapiens, UniProt Q9Y233)
[5] = molecular target: Rod cGMP-specific 3',5'-cyclic phosphodiesterase alpha/beta (Homo sapiens, UniProt P16499+P35913)
[6] = molecular target: T3, 3',5'-cyclic-AMP phosphodiesterase 7B (Homo sapiens, UniProt Q9NP56)
[7] = molecular target: T4, High affinity cAMP-specific and IBMX-insensitive 3',5'-cyclic phosphodiesterase 8A (Homo sapiens, UniProt O60658)
[8] = molecular target: T5, Dual 3',5'-cyclic-AMP and -GMP phosphodiesterase 11A (Homo sapiens, UniProt Q9HCR9); experiment: biochemical
[9] = molecular target: cGMP-specific 3',5'-cyclic phosphodiesterase (Homo sapiens, UniProt O76074); experiment: biochemical
[10] = molecular target: T6, High affinity cGMP-specific 3',5'-cyclic phosphodiesterase 9A (Homo sapiens, UniProt O76083); experiment: biochemical
in vivo [11] = conditions: Crl:CD(SD) IGS, rat, iv
in vivo [12] = conditions: Crl:CD(SD) IGS, rat, iv; remark: listed apart in the source
in vivo [13] = conditions: Crl:CD(SD) IGS, rat, po, 1 mg/kg
in vivo [14] = conditions: Crl:CD(SD) IGS, rat, po, 1 mg/kg; remark: listed apart in the source
in vivo [15] = conditions: Crl:CD(SD) IGS, rat, po, 1 mg/kg; remark: listed apart in the source
in vivo [16] = conditions: Sprague-Dawley, rat, brain, po, 10 mg/kg
in vivo [17] = conditions: ICR, mouse, iv
in vivo [18] = conditions: ICR, mouse, iv; remark: listed apart in the source
in vivo [19] = conditions: ICR, mouse, po, 1 mg/kg
in vivo [20] = conditions: ICR, mouse, po, 1 mg/kg; remark: listed apart in the source
in vivo [21] = conditions: ICR, mouse
in vivo [22] = conditions: Crl:CD(SD) IGS, rat
in vivo [23] = conditions: ICR, mouse, brain, po, 10 mg/kg
in vivo [24] = conditions: ICR, mouse, po, 1 mg/kg; remark: listed apart in the source
[25] = molecular target: T5, Dual 3',5'-cyclic-AMP and -GMP phosphodiesterase 11A
[26] = molecular target: T1, 3',5'-cyclic-AMP phosphodiesterase 4D; remark: listed apart in the source
[27] = molecular target: T2, cAMP and cAMP-inhibited cGMP 3',5'-cyclic phosphodiesterase 10A; remark: listed apart in the source
[28] = molecular target: Rod cGMP-specific 3',5'-cyclic phosphodiesterase alpha/beta (Homo sapiens, UniProt P35913+P16499)
[29] = molecular target: T3, 3',5'-cyclic-AMP phosphodiesterase 7B; remark: listed apart in the source
[30] = molecular target: T4, High affinity cAMP-specific and IBMX-insensitive 3',5'-cyclic phosphodiesterase 8A; remark: listed apart in the source
[31] = molecular target: T6, High affinity cGMP-specific 3',5'-cyclic phosphodiesterase 9A

T1 sequence (Q08499 whole entry): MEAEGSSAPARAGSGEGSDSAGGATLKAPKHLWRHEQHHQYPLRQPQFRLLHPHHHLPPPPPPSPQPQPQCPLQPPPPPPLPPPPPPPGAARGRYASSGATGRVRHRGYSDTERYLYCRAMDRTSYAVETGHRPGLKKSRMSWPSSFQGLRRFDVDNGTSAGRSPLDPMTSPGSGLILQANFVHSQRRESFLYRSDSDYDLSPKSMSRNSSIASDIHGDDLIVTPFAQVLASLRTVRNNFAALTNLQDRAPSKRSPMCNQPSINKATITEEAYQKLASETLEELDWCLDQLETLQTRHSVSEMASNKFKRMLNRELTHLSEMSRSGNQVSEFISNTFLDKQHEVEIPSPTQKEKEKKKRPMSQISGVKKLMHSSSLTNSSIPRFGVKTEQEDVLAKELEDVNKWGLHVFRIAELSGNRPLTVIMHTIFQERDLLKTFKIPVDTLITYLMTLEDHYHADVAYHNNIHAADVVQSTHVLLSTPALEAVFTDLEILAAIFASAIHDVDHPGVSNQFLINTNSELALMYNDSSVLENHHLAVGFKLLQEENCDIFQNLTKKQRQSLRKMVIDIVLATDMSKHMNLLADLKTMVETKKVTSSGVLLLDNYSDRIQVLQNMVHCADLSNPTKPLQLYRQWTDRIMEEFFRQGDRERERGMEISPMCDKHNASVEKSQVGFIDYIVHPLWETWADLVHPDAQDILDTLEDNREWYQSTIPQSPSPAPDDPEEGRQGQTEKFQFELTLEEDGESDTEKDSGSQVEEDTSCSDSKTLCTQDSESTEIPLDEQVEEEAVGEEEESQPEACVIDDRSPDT
Sequence of Dual specificity calcium/calmodulin-dependent 3',5'-cyclic nucleotide phosphodiesterase 1A (P54750 whole entry): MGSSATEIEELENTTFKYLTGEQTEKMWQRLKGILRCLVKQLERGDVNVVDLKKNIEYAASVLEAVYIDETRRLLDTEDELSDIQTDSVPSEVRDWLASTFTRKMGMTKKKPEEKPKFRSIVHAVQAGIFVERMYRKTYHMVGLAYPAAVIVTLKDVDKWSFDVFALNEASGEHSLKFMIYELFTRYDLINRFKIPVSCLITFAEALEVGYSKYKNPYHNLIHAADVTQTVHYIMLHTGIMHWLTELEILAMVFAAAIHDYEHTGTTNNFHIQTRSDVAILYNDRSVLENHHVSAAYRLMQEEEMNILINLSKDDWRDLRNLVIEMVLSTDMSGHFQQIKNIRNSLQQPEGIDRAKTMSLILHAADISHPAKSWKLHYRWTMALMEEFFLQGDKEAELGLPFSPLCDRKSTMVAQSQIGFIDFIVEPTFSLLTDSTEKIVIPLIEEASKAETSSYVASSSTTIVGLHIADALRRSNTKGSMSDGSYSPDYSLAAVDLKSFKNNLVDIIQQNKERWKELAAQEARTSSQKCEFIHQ
T6 sequence (O76083 whole entry): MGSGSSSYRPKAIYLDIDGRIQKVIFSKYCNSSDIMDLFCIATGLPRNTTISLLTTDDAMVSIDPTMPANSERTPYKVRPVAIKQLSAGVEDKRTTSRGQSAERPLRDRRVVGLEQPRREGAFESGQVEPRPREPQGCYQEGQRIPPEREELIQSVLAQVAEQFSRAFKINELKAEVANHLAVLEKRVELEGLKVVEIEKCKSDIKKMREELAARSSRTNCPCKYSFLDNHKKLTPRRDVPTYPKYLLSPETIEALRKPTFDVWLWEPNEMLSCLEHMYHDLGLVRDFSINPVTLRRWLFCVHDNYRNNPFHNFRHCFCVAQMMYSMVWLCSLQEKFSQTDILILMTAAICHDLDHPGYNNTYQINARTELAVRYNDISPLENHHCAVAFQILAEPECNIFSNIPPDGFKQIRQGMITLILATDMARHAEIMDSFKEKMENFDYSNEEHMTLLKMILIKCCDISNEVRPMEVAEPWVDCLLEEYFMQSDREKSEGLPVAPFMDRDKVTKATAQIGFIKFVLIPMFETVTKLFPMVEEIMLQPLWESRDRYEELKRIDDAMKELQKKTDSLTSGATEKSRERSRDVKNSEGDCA
T3 sequence (Q9NP56 whole entry): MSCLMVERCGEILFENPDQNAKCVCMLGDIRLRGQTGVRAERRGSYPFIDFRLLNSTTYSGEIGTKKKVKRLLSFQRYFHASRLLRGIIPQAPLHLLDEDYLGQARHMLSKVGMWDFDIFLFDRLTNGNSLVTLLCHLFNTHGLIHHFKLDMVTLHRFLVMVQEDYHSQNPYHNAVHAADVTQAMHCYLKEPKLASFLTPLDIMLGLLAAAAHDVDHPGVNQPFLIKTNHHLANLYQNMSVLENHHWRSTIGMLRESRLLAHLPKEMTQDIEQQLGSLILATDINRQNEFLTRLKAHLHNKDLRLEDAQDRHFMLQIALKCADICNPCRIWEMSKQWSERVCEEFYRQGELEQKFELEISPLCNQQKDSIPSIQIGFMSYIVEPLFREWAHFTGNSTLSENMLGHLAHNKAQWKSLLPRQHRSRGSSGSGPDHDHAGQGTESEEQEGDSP
T4 sequence (O60658 whole entry): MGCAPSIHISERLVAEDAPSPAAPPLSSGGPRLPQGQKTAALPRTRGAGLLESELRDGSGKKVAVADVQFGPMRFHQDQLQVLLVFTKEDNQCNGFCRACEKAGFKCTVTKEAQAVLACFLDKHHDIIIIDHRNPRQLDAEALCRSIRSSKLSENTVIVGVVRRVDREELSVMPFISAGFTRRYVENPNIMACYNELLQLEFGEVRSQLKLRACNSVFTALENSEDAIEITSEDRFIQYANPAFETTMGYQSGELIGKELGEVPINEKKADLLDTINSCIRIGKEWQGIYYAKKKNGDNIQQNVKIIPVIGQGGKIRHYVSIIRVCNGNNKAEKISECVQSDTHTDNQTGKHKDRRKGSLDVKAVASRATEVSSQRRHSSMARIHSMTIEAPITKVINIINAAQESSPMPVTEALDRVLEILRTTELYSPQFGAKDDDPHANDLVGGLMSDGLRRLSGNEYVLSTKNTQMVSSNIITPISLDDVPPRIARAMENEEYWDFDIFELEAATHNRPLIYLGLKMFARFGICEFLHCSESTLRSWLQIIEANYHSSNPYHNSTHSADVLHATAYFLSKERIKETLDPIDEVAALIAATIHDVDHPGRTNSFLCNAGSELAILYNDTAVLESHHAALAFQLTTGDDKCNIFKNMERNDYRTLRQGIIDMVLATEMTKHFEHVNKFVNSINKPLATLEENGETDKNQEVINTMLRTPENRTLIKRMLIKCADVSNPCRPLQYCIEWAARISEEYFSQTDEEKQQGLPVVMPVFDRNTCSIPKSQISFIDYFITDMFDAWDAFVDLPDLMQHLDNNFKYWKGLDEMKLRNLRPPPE
T5 sequence (Q9HCR9 whole entry): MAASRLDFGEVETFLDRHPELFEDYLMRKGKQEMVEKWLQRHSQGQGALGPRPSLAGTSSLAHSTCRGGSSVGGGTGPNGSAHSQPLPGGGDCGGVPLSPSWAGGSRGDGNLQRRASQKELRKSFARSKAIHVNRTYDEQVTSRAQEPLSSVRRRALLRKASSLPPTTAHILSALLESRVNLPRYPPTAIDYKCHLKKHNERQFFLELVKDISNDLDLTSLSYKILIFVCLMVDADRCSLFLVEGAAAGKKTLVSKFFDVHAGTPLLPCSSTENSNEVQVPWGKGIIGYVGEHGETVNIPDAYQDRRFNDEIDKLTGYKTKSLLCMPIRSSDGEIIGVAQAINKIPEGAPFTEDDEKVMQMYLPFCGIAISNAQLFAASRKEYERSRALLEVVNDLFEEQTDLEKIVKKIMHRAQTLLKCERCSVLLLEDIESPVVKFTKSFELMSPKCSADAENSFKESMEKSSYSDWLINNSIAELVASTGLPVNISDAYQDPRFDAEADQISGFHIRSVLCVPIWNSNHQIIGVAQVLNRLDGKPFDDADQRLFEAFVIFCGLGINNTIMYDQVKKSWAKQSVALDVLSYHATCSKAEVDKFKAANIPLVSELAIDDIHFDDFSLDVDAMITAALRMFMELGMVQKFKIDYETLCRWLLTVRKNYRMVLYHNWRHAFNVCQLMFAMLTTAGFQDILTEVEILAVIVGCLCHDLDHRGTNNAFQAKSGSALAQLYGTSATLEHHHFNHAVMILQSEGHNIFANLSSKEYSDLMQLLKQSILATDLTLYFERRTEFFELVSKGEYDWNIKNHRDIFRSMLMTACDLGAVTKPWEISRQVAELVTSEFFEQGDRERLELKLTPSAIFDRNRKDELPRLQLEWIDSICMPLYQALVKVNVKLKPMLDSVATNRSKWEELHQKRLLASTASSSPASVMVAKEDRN

For `COC[C@@H](NC(=O)N1CC(=O)Nc2cc(OC)cnc21)c1ccc(OC(F)(F)F)cc1`, the logD (physchem) was 3.19.

With `COCC(NC(=O)N1CC(=O)Nc2cc(C)cnc21)c1ccc(OC(F)(F)F)cc1` (stereo unspecified) the logD (physchem) was 3.35.

Work on `CCC(NC(=O)N1CC(=O)Nc2cccnc21)c1ccccc1OC(F)(F)F` (stereo unspecified) yielded a logD (physchem) of 3.52.

With `CCC(NC(=O)N1CC(=O)Nc2cccnc21)c1ccc(OC)cc1` (stereo unspecified) the logD (physchem) was 2.78.

`CCCC(NC(=O)N1CC(=O)Nc2cccnc21)c1ccc(OC(F)(F)F)cc1` (stereo unspecified) gave a logD (physchem) of 4.05.

In the case of `COCC(NC(=O)N1CC(=O)Nc2cc(Cl)cnc21)c1ccc(OC(F)(F)F)cc1` (stereo unspecified), the logD (physchem) is reported as 3.74.

In the case of `CCC(NC(=O)N1CC(=O)Nc2cccnc21)c1ccc(OC(F)(F)F)cc1` (racemic), the IC50 [1] is reported as 3.2 µM, the IC50 [2] is reported as 8.1 µM and the IC50 [3] is reported as greater than 10 µM. It also gave an IC50 [4] greater than 10 µM, an IC50 [5] greater than 10 µM and an IC50 [6] greater than 10 µM. It also gave an IC50 [7] greater than 10 µM, a logD (physchem) of 3.61 and an IC50 [8] greater than 10 µM. For the same molecule, the IC50 [9] was 9.8 µM and the IC50 [10] was greater than 10 µM.

With `COCCC(NC(=O)N1CC(=O)Nc2cccnc21)c1ccc(OC(F)(F)F)cc1` (stereo unspecified) the logD (physchem) was 3.09.

`COCC(NC(=O)N1CC(=O)Nc2cccnc21)c1ccc(OC(F)(F)F)cc1` (stereo unspecified) gave a logD (physchem) of 2.95.

Molecule `COCC(NC(=O)N1CC(=O)Nc2cc(OC)cnc21)c1ccc(OC(F)(F)F)cc1` (stereo unspecified) has a logD (physchem) of 3.2.

In the case of `CS(=O)(=O)CC(NC(=O)N1CC(=O)Nc2cccnc21)c1ccc(OC(F)(F)F)cc1` (stereo unspecified), the logD (physchem) is reported as 1.91.

Molecule `CCC(NC(=O)N1CC(=O)Nc2cccnc21)c1ccc(OC(F)(F)F)cc1F` (stereo unspecified) has a logD (physchem) of 3.83.

`CCC(NC(=O)N1CC(=O)Nc2cccnc21)c1ccc(C(F)(F)F)cc1` (stereo unspecified) gave a logD (physchem) of 3.45.

For `COC[C@@H](NC(=O)N1CC(=O)Nc2cc(OC)cnc21)c1ccc(OC(F)(F)F)c(F)c1` [TAK-915], the IC50 [1] was 2.5 µM, the IC50 [2] was greater than 30 µM and the IC50 [3] was 14.9 µM. It also gave an IC50 [4] greater than 30 µM, an IC50 [5] greater than 30 µM and an IC50 [6] greater than 30 µM. The IC50 [7] was greater than 30 µM, the clearance at 8 h (in vivo [11]) was 39.3 mL/min/kg and the Vd at 8 h (in vivo [12]) was 3.43 L/kg. The Cmax at 8 h (in vivo [13]) was 64.2 ng/mL, the Tmax at 8 h (in vivo [14]) was 1.7 h and the bioavailability at 8 h (in vivo [15]) was 56.7%. It also gave a Kp at 2 h (in vivo [16]) of 1.01, a clearance at 8 h (in vivo [17]) of 8.6 mL/min/kg and a Vd at 8 h (in vivo [18]) of 1.6 L/kg. For the same molecule, the Cmax at 8 h (in vivo [19]) was 201 ng/mL, the Tmax at 8 h (in vivo [20]) was 1.7 h and the AUC(0-t) (in vivo [21]) was 1080 ng·h/mL. The AUC(0-t) (in vivo [22]) was 242 ng·h/mL, the Kp at 2 h (in vivo [23]) was 0.91 and the bioavailability at 8 h (in vivo [24]) was 55.6%. For the same molecule, the logD (physchem) was 3.32, the IC50 [8] was greater than 30 µM and the IC50 [9] was greater than 30 µM. For the same molecule, the IC50 [10] was greater than 30 µM.

With `CCC(NC(=O)N1CC(=O)Nc2cccnc21)c1ccc(OC(F)(F)F)cc1` (stereo in doubt; 6a) the IC50 [1] was 2 µM, the IC50 [2] was 4.2 µM and the IC50 [25] was greater than 10 µM. For the same molecule, the IC50 [26] was greater than 10 µM, the IC50 [27] was greater than 10 µM and the IC50 [28] was greater than 10 µM. The IC50 [29] was greater than 10 µM, the IC50 [30] was greater than 10 µM and the IC50 [31] was greater than 10 µM. The IC50 [9] was greater than 10 µM.

For `COCC(NC(=O)N1CC(=O)Nc2cc(C3CC3)cnc21)c1ccc(OC(F)(F)F)cc1` (stereo unspecified), the logD (physchem) was 3.85.

`COCC(NC(=O)N1CC(=O)Nc2cc(OC(C)C)cnc21)c1ccc(OC(F)(F)F)cc1` (stereo unspecified) showed a logD (physchem) of 3.94.

`CCC(NC(=O)N1CC(=O)Nc2cccnc21)c1ccc(C2CC2)cc1` (stereo unspecified) showed a logD (physchem) of 3.75.

In the case of `CCC(NC(=O)N1CC(=O)Nc2cccnc21)c1ccc(OC(F)(F)F)c(F)c1` (stereo unspecified), the logD (physchem) is reported as 3.67.

`CC(C)(O)C(NC(=O)N1CC(=O)Nc2cccnc21)c1ccc(OC(F)(F)F)cc1` (stereo unspecified) gave a logD (physchem) of 2.54.

In the case of `COCC(NC(=O)N1CC(=O)Nc2c(C)ccnc21)c1ccc(OC(F)(F)F)cc1` (stereo unspecified), the logD (physchem) is reported as 3.16.

With `O=C1CN(C(=O)NC(CO)c2ccc(OC(F)(F)F)cc2)c2ncccc2N1` (stereo unspecified) the logD (physchem) was 2.16.

For `COCC(NC(=O)N1CC(=O)Nc2ccc(C)nc21)c1ccc(OC(F)(F)F)cc1` (stereo unspecified), the logD (physchem) was 3.38.
